From article PMC10776578, “Epstein-Barr virus-driven B cell lymphoma mediated by a direct LMP1-TRAF6 complex” (Nature Communications, 2024)
Residue numbers refer to the chain shown, from its start. These are yes or no findings as the source states them, for the method shown. For part of these data: Binding seen in cells or lysates may run through a third protein. Some binding calls cover weakened binding; strength is not graded here. Where a sequence is shown, tags or fusion partners need not be part of it.

T1: Flag-TRAF6 F471A (human) (UniProt Q9Y4K3)
T1 sequence: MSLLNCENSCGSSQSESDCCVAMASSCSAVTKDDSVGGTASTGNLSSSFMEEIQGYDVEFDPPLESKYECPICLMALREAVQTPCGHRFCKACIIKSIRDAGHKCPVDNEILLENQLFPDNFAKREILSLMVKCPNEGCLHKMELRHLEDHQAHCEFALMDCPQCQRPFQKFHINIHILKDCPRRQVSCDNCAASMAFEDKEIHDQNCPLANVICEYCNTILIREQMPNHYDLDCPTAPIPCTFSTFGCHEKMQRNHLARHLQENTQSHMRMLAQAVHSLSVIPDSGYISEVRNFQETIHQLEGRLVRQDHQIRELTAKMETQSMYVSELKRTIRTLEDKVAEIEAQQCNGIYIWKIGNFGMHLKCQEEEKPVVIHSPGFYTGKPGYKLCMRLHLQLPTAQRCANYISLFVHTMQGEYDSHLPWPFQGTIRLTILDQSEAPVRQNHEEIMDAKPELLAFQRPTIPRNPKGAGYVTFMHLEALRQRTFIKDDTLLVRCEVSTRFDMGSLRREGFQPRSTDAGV

T2: Flag-TRAF6 K469A (human) (UniProt Q9Y4K3)
T2 sequence: T1 sequence with K469A, A471F

T3: Flag-TRAF6 R392A (human) (UniProt Q9Y4K3)
T3 sequence: T1 sequence with R392A, A471F

T4: Flag-TRAF6 Y473A (human) (UniProt Q9Y4K3)
T4 sequence: T1 sequence with A471F, Y473A

B1: His-TRAF2_(311-501) (domain or fragment, UniProt Q12933 311-501)
chain: QDKIEALSSKVQQLERSIGLKDLAMADLEQKVLEMEASTYDGVFIWKISDFARKRQEAVAGRIPAIFSPAFYTSRYGYKMCLRIYLNGDGTGRGTHLSLFFVVMKGPNDALLRWPFNQKVTLMLLDQNNREHVIDAFRPDVTSSSFQRPVNDMNIASGCPLFCPVSKMEAKNSYVRDDAIFIKAIVDLTGL

Key:
[1] = target: T1, Flag-TRAF6 F471A (human); assay: co-IP; HEK293 co-transfected with Flag-TRAF6 and HA-LMP1; NP40-lysis buffer; IP with α-Flag antibody 6F7, coprecipitated HA-LMP1 detected by α-HA immunoblot
[2] = target: T2, Flag-TRAF6 K469A (human); assay: as above
[3] = target: T3, Flag-TRAF6 R392A (human); assay: as above
[4] = target: T4, Flag-TRAF6 Y473A (human); assay: as above
[5] = target: GST-LMP1_(181-386) (Epstein-Barr virus) (UniProt P03230); assay: pull-down; both purified
[6] = target: GST-LMP1_(181-386) A204xAxA (Epstein-Barr virus) (UniProt P03230); assay: pull-down; both purified
[7] = target: GST-LMP1_(181-386) (Epstein-Barr virus) (UniProt P03230); assay: AlphaScreen or HTRF; AlphaScreen PPI assay in competition: GST-LMP1 or GST-CD40 with His-TRAF6 (dose-response of TRAF6 inhibitor or control peptide, 4-parameter fit) or GST-LMP1 with His-TRAF2 (30 µM peptide); both purified
[8] = target: LMP1-derived CTAR2 peptide 10 (371-386, P379xQxS to AxAxA) (Epstein-Barr virus) (UniProt P03230); assay: peptide or protein array; peptides spot-synthesised on cellulose membranes in duplicate, incubated with 10 µg per mL purified His-TRAF6 or His-TRAF2 in PBST with 5% milk powder for 4 h at RT; detection by TRAF-specific antibodies; both purified
[9] = target: LMP1-derived CTAR2 peptide 11 (amino acids 357-386, 30mer) (Epstein-Barr virus) (UniProt P03230); assay: as above
[10] = target: LMP1-derived CTAR2 peptide 12 (357-386, P379xQxS to AxAxA) (Epstein-Barr virus) (UniProt P03230); assay: as above
[11] = target: LMP1-derived CTAR2 peptide 8 (amino acids 371-386, 16mer) (Epstein-Barr virus) (UniProt P03230); assay: as above
[12] = target: LMP1-derived CTAR2 peptide 9 (371-386, Y384 and Y385 to AA) (Epstein-Barr virus) (UniProt P03230); assay: as above

Molecule	binding [1]	binding [2]	binding [3]	binding [4]	binding [5]	binding [6]	binding [7]	binding [8]	binding [9]	binding [10]	binding [11]	binding [12]
HA-LMP1 wild-type (from UniProt P03230)	no binding	binds	no binding	no binding	–	–	–	–	–	–	–	–
B1	–	–	–	–	binds	no binding	binds	no binding (tested: 10 µg per mL)	no binding (tested: 10 µg per mL)	no binding (tested: 10 µg per mL)	no binding (tested: 10 µg per mL)	no binding (tested: 10 µg per mL)
